T1: B7-H2 (Sino Biological, Cat #: 11559-H08H) (human, UniProt O75144 19-256)
T1 construct: extracellular domain; Bought
T1 sequence (looked up): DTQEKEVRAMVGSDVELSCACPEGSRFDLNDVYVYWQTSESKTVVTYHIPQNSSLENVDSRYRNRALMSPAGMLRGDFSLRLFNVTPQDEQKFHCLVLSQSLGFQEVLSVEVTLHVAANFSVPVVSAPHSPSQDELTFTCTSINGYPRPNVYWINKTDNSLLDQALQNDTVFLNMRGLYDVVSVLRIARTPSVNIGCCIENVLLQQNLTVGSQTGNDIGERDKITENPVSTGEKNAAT

T2: B7-H7 (Sino Biological, Cat #: 16139-H02H) (human, UniProt Q9UM44 23-344)
T2 construct: extracellular domain; Bought
T2 sequence (looked up): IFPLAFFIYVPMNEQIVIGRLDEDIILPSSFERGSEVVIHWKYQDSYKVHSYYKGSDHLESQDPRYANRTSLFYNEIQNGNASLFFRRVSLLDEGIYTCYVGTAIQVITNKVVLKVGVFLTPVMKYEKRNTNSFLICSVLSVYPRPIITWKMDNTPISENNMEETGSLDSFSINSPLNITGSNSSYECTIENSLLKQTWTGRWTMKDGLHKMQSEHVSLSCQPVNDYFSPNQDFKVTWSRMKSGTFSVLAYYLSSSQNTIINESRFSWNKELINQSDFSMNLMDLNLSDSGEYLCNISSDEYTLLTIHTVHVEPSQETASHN

T3: B7-H6 (Sino Biological, Cat #: 16140-H08H) (human, UniProt Q68D85 25-262)
T3 construct: extracellular domain; Bought
T3 sequence (looked up): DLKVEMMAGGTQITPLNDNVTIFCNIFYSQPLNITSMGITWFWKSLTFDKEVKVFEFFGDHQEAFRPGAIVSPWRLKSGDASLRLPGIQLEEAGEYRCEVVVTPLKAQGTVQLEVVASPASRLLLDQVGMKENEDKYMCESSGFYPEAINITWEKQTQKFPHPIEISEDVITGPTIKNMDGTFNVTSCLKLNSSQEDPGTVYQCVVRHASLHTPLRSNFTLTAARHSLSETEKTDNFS

T4: B7-DC (Sino Biological, Cat #: 10292-H08H) (human, UniProt Q9BQ51 20-220)
T4 construct: extracellular domain; Bought
T4 sequence (looked up): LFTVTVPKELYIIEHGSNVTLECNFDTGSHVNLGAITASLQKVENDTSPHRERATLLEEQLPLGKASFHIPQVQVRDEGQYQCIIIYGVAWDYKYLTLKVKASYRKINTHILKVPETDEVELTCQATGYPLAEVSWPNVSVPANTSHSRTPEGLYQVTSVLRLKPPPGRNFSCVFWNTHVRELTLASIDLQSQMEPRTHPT

T5: B7-2 (Sino Biological, Cat #: 10699-H08H) (human, UniProt P42081 24-247)
T5 construct: extracellular domain; Bought
T5 sequence (looked up): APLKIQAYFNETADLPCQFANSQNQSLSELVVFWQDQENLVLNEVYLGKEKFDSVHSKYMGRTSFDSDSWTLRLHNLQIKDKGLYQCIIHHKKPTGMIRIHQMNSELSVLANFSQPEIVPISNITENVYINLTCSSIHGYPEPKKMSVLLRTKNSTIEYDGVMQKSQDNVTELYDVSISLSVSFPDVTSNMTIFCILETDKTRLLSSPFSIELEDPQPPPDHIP

T6: B7-H5 (Sino Biological, Cat #: 13482-H08H) (human, UniProt Q9H7M9 33-194)
T6 construct: extracellular domain; Bought
T6 sequence (looked up): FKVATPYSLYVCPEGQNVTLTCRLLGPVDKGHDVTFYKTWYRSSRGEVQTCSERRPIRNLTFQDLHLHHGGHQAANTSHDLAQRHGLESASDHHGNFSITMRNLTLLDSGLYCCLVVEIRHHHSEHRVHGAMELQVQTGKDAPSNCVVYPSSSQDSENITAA

T7: B7-1 (Sino Biological, Cat #: 10698-H08H) (human, UniProt P33681 35-242)
T7 construct: extracellular domain; Bought
T7 sequence (looked up): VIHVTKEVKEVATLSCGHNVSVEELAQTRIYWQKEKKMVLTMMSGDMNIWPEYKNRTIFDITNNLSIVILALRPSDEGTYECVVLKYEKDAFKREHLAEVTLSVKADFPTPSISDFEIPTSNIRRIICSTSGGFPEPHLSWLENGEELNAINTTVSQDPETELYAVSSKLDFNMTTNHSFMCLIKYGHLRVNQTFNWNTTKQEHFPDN

B1: anti-B7-H3 antibody D8G (full IgG form) (antibody)
heavy: EVQLLESGGGLVQPGGSLRLSCAASGFTFSSYSMSWVRQAPGKGLEWVSGIYSDGSNTYYADSVKGRFTISRDNSKNTLYLQMNSLRAEDTAVYYCAKMLHRFDYWGQGTLVTVSS[human IgG1 constant region not shown]
light: QSVLTQPPSASGTPGQRVTISCSGSSSNIGSNSVTWYQQLPGTAPKLLIYADSQRPSGVPDRFSGSKSGTSASLAISGLRSEDEADYYCGTWDSSLNAYVFGGGTKLTVLGQPKAAPSVTLFPPSSEELQANKATLVCLISDFYPGAVTVAWKADSSPVKAGVETTTPSKQSNNKYAASSYLSLTPEQWKSHRSYSCQVTHEGSTVEKTVAPAECS
B2: anti-B7-H3 antibody B5 (full IgG form) (antibody)
heavy: EVQLLESGGGLVQPGGSLRLSCAASGFTFSDYAMSWVRQAPGKGLEWVSSISSGSGSIYYADSVKGRFTISRDNSKNTLYLQMNSLRAEDTAVYYCAKNLIPLDYWGQGTLVTVSS[human IgG1 constant region not shown]
light: B1 light with S33A, T35S, A51Y, D52N, Q54H, T91S, S94A
B3: anti-B7-H3 antibody C4I (full IgG form) (antibody)
heavy: B2 heavy with D31G, A33Y, S50L, S53P, G54S, N99G, I101T, P102K, L103F
light: B1 light with S23T, S33D, T35S, D52N, Q54H, T91S, S94D, N97S, A98G
notes: also called C41
B4: anti-B7-H3 antibody F6V (full IgG form) (antibody)
heavy: EVQLLESGGGLVQPGGSLRLSCAASGFTFSDYAMSWVRQAPGKGLEWVSGISPGGSNTYYADSVKGRFTISRDNSKNTLYLQMNSLRAEDTAVYYCAKDAWIARLLLFDYWGQGTLVTVSS[human IgG1 constant region not shown]
light: B1 light with S33A, A51Y, D52N, S53N, Q54K, S94D, N97S, A98G
B5: anti-B7-H3 antibody 10F11 (full IgG form) (antibody)
heavy: B1 heavy with S33G, D54G, N57S, T58K, M99N, L100R, H101L
light: B1 light with S23T, A51S, Q54H, S94A

Residue numbers refer to the chain shown, from its start. In names and notes the source's numbering stands.

In one test the target is T1, B7-H2 (Sino Biological, Cat #: …). The experiment in a line: ELISA on plate-coated recombinant B7 family proteins (1 ug/ml). The method, then:
(§1) Specifically, after diluting the recombinant human B7 family proteins at a concentration of 1 µg/ml and putting them in a 96-well plate (Nunc-Immuno Plates, NUNC) in 100 µl per well, it was reacted at 4° C. for 16 hrs for coating. The recombinant proteins used in Example 1 was used.
(§2) Then, after removing proteins and washing it with PBST, 200 µl of PBS buffer comprising 1% BSA (bovine serum albumin) was put per well and it was reacted at 37° C. for 2 hrs to block non-specific binding. Then, after diluting the anti-B7-H3 antibodies prepared in Example 2 in 10 µg/ml on a 96-well plate, 100 µl was put per well and it was reacted at 37° C. for 1 hr. Then after it was washed with PBST. In order to detect antibodies bound to an antigen, HRP-connected anti-human IgG F(ab')2 antibody (Goat anti-Human IgG F(ab')2 Cross-Adsorbed Secondary Antibody, HRP, Pierce, 31414) was diluted in PBS comprising 1% bovine serum albumin (BSA) by 1:10,000. 100 µl was put per well and it was reacted at 37° C. for about 1 hr. After washing it with PBST again, TMB (Tetramethylbenzidine, Sigma, T0440) 100 µl was put to develop color. After reacting it at RT for 5-10 min, 50 µl of H_2SO_4 was put to finish the reaction, and the absorbance at 450 nm and 650 nm was measured by using a micro plate reader (molecular device).
On the technique in general: An ELISA detects its analyte on a solid surface through an enzyme-linked reagent.
On to B1, for which the binding result is listed as “no binding”.
For the molecule B2, the binding result is on record as “no binding”.
B3: the binding result is listed as “no binding”.
On to B4, for which the binding result is “no binding”.
On the same count and under the same terms, in the case of B5 it was “no binding”.

Another test addresses T8, B7-H1 (Sino Biological, Cat #: 10084-H08H) (human, UniProt Q9NZQ7 part only).
T8 construct: extracellular domain; Bought
T8 sequence (Q9NZQ7 19-238): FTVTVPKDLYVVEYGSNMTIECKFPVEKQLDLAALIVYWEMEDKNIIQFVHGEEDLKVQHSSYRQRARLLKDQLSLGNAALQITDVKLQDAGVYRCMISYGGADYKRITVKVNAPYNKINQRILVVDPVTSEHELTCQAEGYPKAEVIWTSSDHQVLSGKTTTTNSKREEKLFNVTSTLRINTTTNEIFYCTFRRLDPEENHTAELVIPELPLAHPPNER
Described as above. As for the experimental part:
as §1, §2
Take B1: the binding result was “no binding”.
Regarding B2, the binding result was “no binding”.
As to B3, the binding result is “no binding”.
As for B4, the binding result was “no binding”.
With B5, the binding result was “no binding”.

The next test concerns the target T2, B7-H7 (Sino Biological, Cat #: …). The description is as above. The method, then: as §1, §2
As to B1, the binding result is reported as “no binding”.
Regarding B2, the binding result is “no binding”.
On to B3, for which the binding result was “no binding”.
Turning to B4, the binding result is reported as “no binding”.
In the case of B5, the binding result was “no binding”.

For a further test, the target named is T3, B7-H6 (Sino Biological, Cat #: …). The description is as above. The method, then: as §1, §2
Turning to B1, the binding result is “no binding”.
On to B2, for which the binding result is listed as “no binding”.
As for B3, the binding result is “no binding”.
Same read-out and setting: in the case of B4 it was “no binding”.
For the molecule B5, the binding result is on record as “no binding”.

The next test has as its target T4, B7-DC (Sino Biological, Cat #: …). Described as above. As for the experimental part:
as §1, §2
For B1, the binding result is listed as “no binding”.
As to B2, the binding result is listed as “no binding”.
With B3, the binding result is reported as “no binding”.
B4: the binding result was “no binding”.
On the same count and under the same terms, in the case of B5 it was “no binding”.

For another test, the target named is T5, B7-2 (Sino Biological, Cat #: …). The test is described as above. The method, then:
as §1, §2
In the case of B1, the binding result is listed as “no binding”.
Take B2: the binding result is “no binding”.
Same read-out and setting: as for B3, the entry is “no binding”.
Still for that read-out and setting: as for B4, the entry is “no binding”; as for B5, “no binding”.

The next test concerns the target T6, B7-H5 (Sino Biological, Cat #: …). The description is as above. As for the experimental part:
as §1, §2
As to B1, the binding result is “no binding”.
B2: the binding result is recorded as “no binding”.
Still for that read-out and setting: as for B3, the entry is “no binding”.
In the case of B4, the binding result was “no binding”.
With B5, the binding result is recorded as “no binding”.

In the next test the target is T7, B7-1 (Sino Biological, Cat #: …). The test is described as above. As for the experimental part:
as §1, §2
Turning to B1, the binding result is “no binding”.
Turning to B2, the binding result is given as “no binding”.
As to B3, the binding result is listed as “no binding”.
For B4, the binding result is recorded as “no binding”.
In the case of B5, the binding result is given as “no binding”.
